# The list shows a part of the results.
# B1: PhoQ; a variant is named by its letters at X, in order, P23837 (parent)
# chain: MKKLLRLFFPLSLRVRFLLATAAVVLVLSLAYGMVALIGYSVSFDKTTFRLLRGESNLFYTLAKWENNKLHVELPENIDKQSPTMTLIYDENGQLLWAQRDVPWLMKMIQPDWLKSNGFHEIEADVNDTSLLLSGDHSIQQQLQEVREDDDDAEMTHSVAVNVYPATSRMPKLTIVVVDTIPVELKSSYMVWSWFIYVLSANLLLVIPLLWVAAWWSLRPIEALAKEVRELEEHNRELLNPATTRELTSLVRNLNRLLKSERERYDKYRTTLTDLTHSLKTPLXXLQXXLRSLRSEKMSVSDAEPVMLEQISRISQQIGYYLHRASMRGGTLLSRELHPVAPLLDNLTSALNKVYQRKGVNISLDISPEISFVGEQNDFVEVMGNVLDNACKYCLEFVEISARQTDEHLYIVVEDDGPGIPLSKREVIFDRGQRVDTLRPGQGVGLAVAREITEQYEGKIVAGESMLGGARMEVIFGRQHSAPKDE
# Variants of: B1
# Experiment: enrichment ratio after two sorts for PhoP signalling (ratio (wild type AVST 3.29)); higher = more functional
# Details: with PhoP (E. coli)
row,Variant,enrichment ratio
1,TSEV,8.15
2,HNAH,2.97
3,YDSD,≤ 0.25
4,IKKH,≤ 0.25
5,LVLC,≤ 0.25
6,YTYA,≤ 0.25
7,VMEH,≤ 0.25
8,FKNW,≤ 0.25
9,TKEC,≤ 0.25
10,HPGS,≤ 0.25
11,LEPE,≤ 0.25
12,NAFI,≤ 0.25
13,LFDM,≤ 0.25
14,LHSP,≤ 0.25
15,WFFP,≤ 0.25
16,LASM,≤ 0.25
17,QQKR,≤ 0.25
18,LIFW,≤ 0.25
19,KTQA,≤ 0.25
20,EIPC,≤ 0.25
21,DLRG,≤ 0.25
22,AFKQ,≤ 0.25
23,FVFF,≤ 0.25
24,RQGF,≤ 0.25

row,Variant,enrichment ratio
1,KTRG,≤ 0.25
2,HWFL,≤ 0.25
3,YRKS,≤ 0.25
4,AYGV,≤ 0.25
5,TGYP,≤ 0.25
6,ILSL,≤ 0.25
7,FFMI,≤ 0.25
8,WGRH,≤ 0.25
9,VGVY,≤ 0.25
10,LIIQ,≤ 0.25
11,MAWL,12
12,DGAY,≤ 0.25
13,WWIN,≤ 0.25
14,DYQW,≤ 0.25
15,GTMT,≤ 0.25
16,PIHM,≤ 0.25
17,KQTD,≤ 0.25
18,PNIN,≤ 0.25
19,VFAQ,≤ 0.25
20,VCEW,≤ 0.25
21,WYRC,≤ 0.25
22,QCAR,≤ 0.25
23,HYKK,≤ 0.25
24,GIRA,≤ 0.25

row,Variant,enrichment ratio
1,HNKS,≤ 0.25
2,SIRH,0.562
3,DTAE,≤ 0.25
4,WYNF,≤ 0.25
5,YTKY,≤ 0.25
6,MSCG,≤ 0.25
7,VFKY,≤ 0.25
8,EGVF,≤ 0.25
9,WWHP,≤ 0.25
10,KDNI,≤ 0.25
11,HAGG,≤ 0.25
12,DSGN,≤ 0.25
13,LEAN,1.88
14,NLLL,≤ 0.25
15,YPLE,≤ 0.25
16,CAFI,≤ 0.25
17,EDNI,≤ 0.25
18,EQSN,≤ 0.25
19,PFPY,≤ 0.25
20,GINN,≤ 0.25
21,ILKS,≤ 0.25
22,WDDC,≤ 0.25
23,DNYT,≤ 0.25
24,PQDL,≤ 0.25

row,Variant,enrichment ratio
1,DQTR,≤ 0.25
2,WAWM,≤ 0.25
3,NECP,≤ 0.25
4,FGTI,0.765
5,ETLD,≤ 0.25
6,ARSD,≤ 0.25
7,SAPK,≤ 0.25
8,HMSL,≤ 0.25
9,SIMM,1.49
10,WKRW,≤ 0.25
11,PYWH,≤ 0.25
12,KIHT,≤ 0.25
13,LSAL,≤ 0.25
14,VAIM,≤ 0.25
15,SFCH,0.703
16,YMLK,≤ 0.25
17,HWQW,≤ 0.25
18,AIEI,≤ 0.25
19,EYTD,≤ 0.25
20,NCLS,≤ 0.25
21,IPIN,≤ 0.25
22,SQPI,≤ 0.25
23,MIQW,≤ 0.25
24,RIWQ,≤ 0.25

row,Variant,enrichment ratio
1,DYLY,≤ 0.25
2,VSHL,≤ 0.25
3,HKYN,≤ 0.25
4,HCDN,≤ 0.25
5,KHKR,≤ 0.25
6,FKWH,≤ 0.25
7,IIFD,≤ 0.25
8,AILV,5.12
9,FCNG,≤ 0.25
10,EFRC,≤ 0.25
11,AQGT,3.18
12,NAMT,≤ 0.25
13,GSIG,2.91
14,PTIH,≤ 0.25
15,SKPL,≤ 0.25
16,QGWK,≤ 0.25
17,EYEP,≤ 0.25
18,VADE,≤ 0.25
19,YKEN,≤ 0.25
20,SFED,≤ 0.25
21,ALVI,5.22
22,DIMA,0.361
23,QSNN,≤ 0.25
24,NRSC,≤ 0.25

row,Variant,enrichment ratio
1,AYSG,0.64
2,HCYI,≤ 0.25
3,PFTQ,≤ 0.25
4,DSRH,≤ 0.25
5,SANN,≤ 0.25
6,TYRE,≤ 0.25
7,HYSF,≤ 0.25
8,WLTV,≤ 0.25
9,DNPN,≤ 0.25
10,TEMY,12.3
11,SAIY,0.848
12,RNYC,≤ 0.25
13,KDRT,≤ 0.25
14,VKLF,≤ 0.25
15,PVAT,≤ 0.25
16,RLLL,≤ 0.25
17,YFDS,≤ 0.25
18,NWRN,≤ 0.25
19,FDRR,≤ 0.25
20,VRYW,≤ 0.25
21,QFNW,≤ 0.25
22,HDRN,≤ 0.25
23,KKVT,≤ 0.25
24,RPTD,≤ 0.25

row,Variant,enrichment ratio
1,WDDM,≤ 0.25
2,PQHS,≤ 0.25
3,VWNN,≤ 0.25
4,QCNR,≤ 0.25
5,DDLT,≤ 0.25
6,QICL,≤ 0.25
7,QMPV,≤ 0.25
8,LSYT,≤ 0.25
9,MVDS,≤ 0.25
10,TSRW,≤ 0.25
11,KLFE,≤ 0.25
12,HESR,≤ 0.25
13,DARM,≤ 0.25
14,IAAT,≤ 0.25
15,VLLL,0.518
16,DMRS,≤ 0.25
17,HCRL,≤ 0.25
18,LVHQ,≤ 0.25
19,RAWF,≤ 0.25
20,AYRD,≤ 0.25
21,ETSH,≤ 0.25
22,VSRD,≤ 0.25
23,FCDK,≤ 0.25
24,NKGM,≤ 0.25

row,Variant,enrichment ratio
1,RFQQ,≤ 0.25
2,WIYM,≤ 0.25
3,AEWN,≤ 0.25
4,KERH,≤ 0.25
5,KNPF,≤ 0.25
6,YKGN,≤ 0.25
7,ICGV,≤ 0.25
8,FMKC,≤ 0.25
9,TQRG,≤ 0.25
10,EAWI,≤ 0.25
11,NNQW,≤ 0.25
12,FPRY,≤ 0.25
13,FWHP,≤ 0.25
14,PHNT,≤ 0.25
15,QKKP,≤ 0.25
16,FCFF,≤ 0.25
17,MMVW,≤ 0.25
18,MYNK,≤ 0.25
19,NCPY,≤ 0.25
20,IAVK,≤ 0.25
21,EPSV,≤ 0.25
22,MKFQ,≤ 0.25
23,FWNE,≤ 0.25
24,HSVI,≤ 0.25

row,Variant,enrichment ratio
1,EYGC,≤ 0.25
2,SRMV,≤ 0.25
3,AMCW,≤ 0.25
4,YDFK,≤ 0.25
5,GNPI,≤ 0.25
6,KSRT,≤ 0.25
7,LLQH,≤ 0.25
8,TRFD,≤ 0.25
9,IMKV,≤ 0.25
10,TPLG,≤ 0.25
11,IVYY,≤ 0.25
12,WQSS,0.334
13,MNYA,≤ 0.25
14,HMSY,≤ 0.25
15,QDND,≤ 0.25
16,IEGM,≤ 0.25
17,VEIV,≤ 0.25
18,YRDD,≤ 0.25
19,YRWA,≤ 0.25
20,HLFK,0.925
21,VAAI,≤ 0.25
22,YYMR,≤ 0.25
23,LPCI,≤ 0.25
24,EYNY,≤ 0.25

row,Variant,enrichment ratio
1,QTAP,≤ 0.25
2,NCNM,≤ 0.25
3,DLKG,≤ 0.25
4,THHL,2.02
5,KVYF,≤ 0.25
6,AWMF,≤ 0.25
7,MTES,≤ 0.25
8,RLFA,≤ 0.25
9,MNYL,12
10,KEDA,≤ 0.25
11,NQHT,≤ 0.25
12,AYSV,≤ 0.25
13,RTVC,≤ 0.25
14,HRMP,≤ 0.25
15,KESY,≤ 0.25
16,NVKT,≤ 0.25
17,YEFS,≤ 0.25
18,WNTW,≤ 0.25
19,HKTK,≤ 0.25
20,FQTF,≤ 0.25
21,AFIL,≤ 0.25
22,MQNV,≤ 0.25
23,AMPW,≤ 0.25
24,MHGH,≤ 0.25

row,Variant,enrichment ratio
1,FDDG,≤ 0.25
2,INIF,≤ 0.25
3,ISVM,≤ 0.25
4,WVTV,≤ 0.25
5,GHEF,≤ 0.25
6,RMHW,≤ 0.25
7,RSHP,≤ 0.25
8,WYPR,≤ 0.25
9,TNQF,1.81
10,ERHQ,≤ 0.25
11,YCFG,≤ 0.25
12,YRKC,≤ 0.25
13,KTTA,≤ 0.25
14,HKEN,≤ 0.25
15,QLHI,≤ 0.25
16,WWSK,≤ 0.25
17,VPGV,≤ 0.25
18,RYNL,≤ 0.25
19,FGRP,≤ 0.25
20,VNVF,0.841
21,GWQV,≤ 0.25
22,VVSK,≤ 0.25
23,RPVI,≤ 0.25
24,NMPW,≤ 0.25

row,Variant,enrichment ratio
1,ATPT,≤ 0.25
2,PHGD,≤ 0.25
3,GWFY,≤ 0.25
4,WGWQ,≤ 0.25
5,GLQL,≤ 0.25
6,ALWA,≤ 0.25
7,HDQV,≤ 0.25
8,FHSQ,≤ 0.25
9,IPEA,≤ 0.25
10,NIPP,≤ 0.25
11,IMRP,≤ 0.25
12,WTKY,≤ 0.25
13,HAFF,≤ 0.25
14,IGTA,≤ 0.25
15,KFRV,≤ 0.25
16,WTFE,≤ 0.25
17,IRCE,≤ 0.25
18,HYPP,≤ 0.25
19,QLDI,≤ 0.25
20,FDDC,≤ 0.25
21,VCHI,≤ 0.25
22,PFCC,≤ 0.25
23,IGLL,5.51
24,LLMS,≤ 0.25

row,Variant,enrichment ratio
1,ARWD,≤ 0.25
2,RFDW,≤ 0.25
3,CSYA,≤ 0.25
4,PQYL,≤ 0.25
5,RLCH,≤ 0.25
6,RVHM,≤ 0.25
7,HFDE,≤ 0.25
8,IAMC,≤ 0.25
9,SWGQ,≤ 0.25
10,DPYW,≤ 0.25
11,LACE,≤ 0.25
12,QREK,≤ 0.25
13,KVHD,≤ 0.25
14,KKEV,≤ 0.25
15,YQIY,≤ 0.25
16,LSFN,≤ 0.25
17,KCQS,≤ 0.25
18,MKDH,≤ 0.25

# — a collection of fitness landscapes (doi:10.1126/science.1257360)
